Data on 48 compounds can be found in PubChem BioAssay AID1963576 (National Center for Advancing Translational Sciences (NCATS), 2024).

SMILES strings stand for the structures. In all, about 46,000 compounds went through this assay and about 60 (0.1%) were called active. Inconclusive results (about 3%) are left out. Calls come from the whole dose curve; as a rule, active = well fitted inhibition curve with a large enough effect; inconclusive = small, poorly fitted or top-dose-only effect; inactive = no such curve, though single readings can be large or run the other way. The list shows a part of the results.

A short description of the assay: Primary qHTS assay for Inhibitors of ovarian cancer metastasis using an organotypic tumor microenvironment (TME) model.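 For activity change, negative = inhibition: plate controls were DMSO wells for no effect and tomatine positive control wells for full effect.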 Note: nearly all actives have a fitted effect of over 65% in size. The note with it: SKOV3ip1-GFP adhesion/invasion on 3D omental model, fluorescence; series mostly up to 45.8 µM; activity change, negative = inhibition: at the top concentration. The method, boiled down:
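qHTS, 4-pt dose (0.36-46 umol/L); SKOV3ip1-GFP, 1,200 cells/well, no FBS; primary omental fibroblast/mesothelial co-culture 48 h pre-grown; 2 h RT + 16 h 37 C; PBS wash, 4% PFA; GFP count 488/509 nm.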
Background: In qHTS, concentration-response curves come from the screen itself.
Take `COc1ccc(CCNC(=O)c2ccc3c(c2)CCN3S(C)(=O)=O)cc1`: the call was inactive.
As to `CCN(c1ccccc1)C(CNS(=O)(=O)c1ccccc1)c1ccccc1` (stereo not drawn), the “activity change, negative = inhibition” value is inactive: 0.478%.
As to `Cc1ccc(-c2nnc(Nc3ccc(Br)cc3)c3ccccc23)cc1S(=O)(=O)N1CCN(C)CC1`, the call was inactive.
Same read-out and setting: as for `COc1ccc(CC(=O)NC2CC(=O)N(c3cccc(F)c3)C2)cc1` (stereo not drawn), the entry is “inactive”.
Regarding `Cc1nn(C(C)C(=O)NC2CCCCC2)c(=O)c2c1sc1ccccc12` (stereo not drawn), the “activity change, negative = inhibition” value is inactive: 7.39%.
Same read-out and setting: as for `COc1ccc(CCNC(=O)Cc2c(C)c3c(cc(C)c4c(C)coc43)oc2=O)cc1OC`, the figure is inactive: -2.26%.
On the same count and under the same terms, to `Cc1ccc(OCC(=O)Nc2ccc(OCc3cc(=O)n4cccc(C)c4n3)cc2)cc1C` belongs inactive: 2.52%; to `COc1ccc(C2CC(=O)c3cc(-c4nc(-c5cccc([N+](=O)[O-])c5)cs4)c(=O)n(-c4ccc(C)c(C)c4)c3C2)cc1` (stereo not drawn), inactive: 9.83%.
The same measure, in the same setting: to `Cc1nnc(NC(=O)CSc2nc3c([nH]c4ccccc43)c(=O)n2-c2ccccc2)s1` belongs inactive: 4.53%; to `O=C(Nc1c(C(=O)N2CCN(c3ccc(F)cc3)CC2)oc2ccccc12)c1c(F)cccc1F`, inactive: -4.78%.
Turning to `COc1ccc(Cn2c(CNC(=O)c3ccc(N(C)C)cc3)nc3cccnc32)cc1`, the “activity change, negative = inhibition” value was inactive: -2.42%.
As to `O=C(Cn1cc(SCc2ccc(C(F)(F)F)cc2)c2ccccc21)N1CCCCCC1`, the “activity change, negative = inhibition” value is inactive: -3%.
Regarding `CCC1CCCCN1CCCNC(=O)CN1C(=O)c2cccnc2Oc2ccc(Cl)cc21` (stereo not drawn), the “activity change, negative = inhibition” value was inactive: 4.6%.
On to `CCC(Sc1nc2ccccc2c2nc(CCn3cncc3C)nn12)C(=O)Nc1cccc(OC)c1` (stereo not drawn), for which the call was inactive.
In the case of `CC(C)Oc1ccc(C(=O)Nc2ccc3c(c2)CCCN3C(=O)c2cccs2)cc1`, the “activity change, negative = inhibition” value is inactive: -9.69%.
Still for that read-out and setting: to `CC(C)CSc1nnc(-c2ccccc2)c(-c2ccccc2)n1` belongs inactive: -1.39%.
As to `CCOC(=O)c1ccc(N2CCN(c3ccccc3F)CC2)c(NC(=O)Nc2ccc(Cl)c(Cl)c2)c1`, the “activity change, negative = inhibition” value is inactive: -2.72%.
For the compound `Cc1ccc(NC(=O)c2oc3ccc(S(=O)(=O)N4CCCCCC4)cc3c2C)cc1Cl`, the “activity change, negative = inhibition” value is inactive: -3.76%.
Consider `COc1ccc(CCNC(=O)c2ccc(Cn3c(=O)c4ccccc4n(Cc4cc(C)ccc4C)c3=O)cc2)cc1OC`, for which the outcome was inactive.
Regarding `Cc1ccc2oc(=O)c3cc(C(=O)Nc4ccc(F)cc4F)sc3c2c1`, the “activity change, negative = inhibition” value is inactive: -21.1%.
Same read-out and setting: as for `Fc1ccc(Nc2nc3ccccc3c3nncn23)c(Cl)c1`, the figure is inactive: 4.78%; as for `Cc1cc(C)c2nc(N3CCCC(C(=O)NCc4cccc(Br)c4)C3)sc2c1` (stereo not drawn), inactive: 8.63%; as for `COc1ccccc1OCCn1c(NC(=O)c2ccc(Cl)cc2)nc2ccccc21`, inactive: 0.159%.
On the same count and under the same terms, as for `COc1ccc(-c2nc3ccccc3s2)cc1NC(=O)COc1ccccc1C`, the figure is inactive: -15.6%.
Turning to `CCc1ccc(NC(=O)C2CCC(CNS(=O)(=O)c3ccc4c(c3)CC(C)N4C(C)=O)CC2)cc1` (stereo not drawn), the “activity change, negative = inhibition” value was inactive: 4.52%.
With `COc1ccc(C)c2sc(N(Cc3cccnc3)C(C)=O)nc12`, the compound was classed as inactive.
As to `Cc1ccc(Cl)cc1NC(=O)CN1C(=O)c2cccc3cccc1c23`, the “activity change, negative = inhibition” value is inactive: 4.75%.
Turning to `CCCN1C(=O)c2[nH]nc(-c3ccccc3O)c2C1c1ccc(OCc2ccccc2)c(OCC)c1` (stereo not drawn), the “activity change, negative = inhibition” value was inactive: -0.411%.
Same read-out and setting: as for `Cc1nn(CC(=O)NCc2cccc(Br)c2)c(=O)c2c1sc1ccccc12`, the figure is inactive: -10.6%; as for `CN(C)c1ccc(CNC(=O)CN2C(=O)c3cccnc3Oc3ccc(Cl)cc32)cc1`, inactive: -1.31%.
As for `Cc1oc2ccc(O)c(CN3CCN(Cc4ccccc4)CC3)c2c1C(=O)Nc1ccccc1`, the “activity change, negative = inhibition” value is inactive: 2.82%.
On the same count and under the same terms, to `O=S(=O)(NCCc1nnc2ccc(SCc3ccc(C(F)(F)F)cc3)nn12)c1ccccc1` belongs inactive: -5.17%; to `Cc1cc(C)c(S(=O)(=O)NCCc2cc3cc(C)c(C)cc3[nH]c2=O)c(C)c1`, inactive: 5.65%; to `COCCNC(=O)C1CCC(CNS(=O)(=O)c2ccc3c(c2)CC(C)N3C(C)=O)CC1` (stereo not drawn), inactive: 1.53%.
The same measure, in the same setting: to `COc1ccc(N(CC(=O)NCc2ccccc2Cl)S(=O)(=O)c2c(C)[nH]c(=O)[nH]c2=O)cc1` belongs inactive: -11.7%; to `O=C(C1COc2ccccc2O1)N1CCN(c2nc3c(F)cccc3s2)CC1` (stereo not drawn), inactive: -0.563%.
Turning to `CC(C)C(=O)Nc1nnc(S(=O)(=O)N2CCCCCC2)s1`, the “activity change, negative = inhibition” value is inactive: 13.9%.
The same measure, in the same setting: to `Cc1ccc(Nc2nc3ccc(C)cc3nc2-n2nc(C)cc2C)c(C)c1` belongs inactive: 8.69%.
The same measure, in the same setting: to `COc1cccc(C(c2sc3nc(-c4ccco4)nn3c2O)N2CCOCC2)c1` (stereo not drawn) belongs inactive: 0.609%.
Consider `COc1ccc(NC(=O)CSc2nnc(-c3ccc(OC)cc3)s2)cc1`, for which the “activity change, negative = inhibition” value was inactive: 3.58%.
On the same count and under the same terms, as for `Cc1c(C(=O)Nc2cccc(F)c2)oc2c1-c1nn(Cc3c(F)cccc3Cl)cc1CC2`, the figure is inactive: -2.74%; as for `COc1cc(C(CC(=O)Nc2ccc(Br)cn2)N2Cc3ccccc3C2=O)cc(OC)c1OC` (stereo not drawn), inactive: 4.9%; as for `COc1cccc(CNC(=O)c2sc3nc4n(c(=O)c3c2C)CCC4)c1`, inactive: -11%.
Regarding `O=C(NCCc1cccs1)c1ccc(Cn2c(SCc3ccccc3)nc3cccnc32)cc1`, the “activity change, negative = inhibition” value was inactive: 1.18%.
Consider `Cc1oc2c(c1C(=O)Nc1ccccc1Br)C1=NCCN1C=N2`, for which the call was inactive.
For the compound `CC(C)(C)c1cnc(CSc2cnc(NC(=O)C3CCNCC3)s2)o1`, the “activity change, negative = inhibition” value is inactive: 12.2%.
The same measure, in the same setting: as for `Cc1ccc(Cn2c(=O)n(CC3CCC(C(=O)N4CCC(C)CC4)CC3)c(=O)c3sccc32)cc1` (stereo not drawn), the figure is inactive: 20.2%; as for `Cc1ccc(CNC(=O)c2c(O)nc3ccccn3c2=O)cc1`, inactive: 7.77%.
